Assay results from patent EP0737690A2, “Antihypertensive agent and method for preparing same” (The Calpis Food Industry Co., Ltd., priority 1995, dated 1996).
Part of at least one peptide drawing is inferred or uncertain, most often the ends. Ends that are not written are not given here. Peptide text beside a SMILES is read from it.

Tested on: spontaneously hypertensive rats (SHR)
Assay: Antihypertensive effect after forced oral administration, systolic blood pressure by tail cuff method
Format: in vivo
Conditions: for Changes in Systolic Blood Pressure Dose 1mg/kg / antihypertensive effect: synthesized peptide 1 mg/kg of body weight by stomachic sonde; for Changes in Systolic Blood Pressure Dose 1mg/kg: after 6 hours, value ±SE, compared with control group; for antihypertensive effect: versus control group

| Molecule | Changes in Systolic Blood Pressure Dose 1mg/kg (∗P<0.05, ∗∗P<0.1) | further results |
| --- | --- | --- |
| CC(C)C[C@H](N)C(=O)N[C@@H](CCC(N)=O)C(=O)N[C@@H](CO)C(=O)N[C@@H](Cc1c[nH]c2ccccc12)C(=O)O [2), Leu Gln Ser Trp] (H-LQSW-OH) | -1.6±9.6 mmHg | – |
| AMKPW [5), Ala Met Lys Pro Trp] | -4.6±11.6 mmHg | – |
| AMKPWIQPK [10), Ala Met Lys Pro Trp Ile Gln Pro Lys] | -0.6±9.3 mmHg | – |
| KVLPVPQ [1), Lys Val Leu Pro Val Pro Gln] | -24±7.8∗ mmHg | dose response of blood pressure decrease (oral 0.2, 0.5, 1.0 and 2.0 mg per kg of body weight, systolic blood pressure after six hours, Fig.2, effect noticed for 0.5 to 2.0 mg/kg): dosage-dependent effects; Changes in Systolic Blood Pressure Dose 1mg/kg (∗P<0.05, ∗∗P<0.1, listed as Lys Val Leu Pro Val Pro Gln): -24.1±7.8 mmHg; antihypertensive effect: significant antihypertensive effect |
| LLYQQPV [8), Leu Leu Tyr Gln Gln Pro Val] | 1.2±9.8 mmHg | – |
| MKPWIQPK [7), Met Lys Pro Trp Ile Gln Pro Lys] | -2.9±5.9 mmHg | – |
| RELEEL [3), Arg Glu Leu Glu Glu Leu] | 1.3±6.7 mmHg | – |
| TKVIP [4), Thr Lys Val Ile Pro] | -9.2±6.1 mmHg | – |
| YKVPQL [6), Tyr Lys Val Pro Gln Leu] | -12.5±11.1∗∗ mmHg | Changes in Systolic Blood Pressure Dose 1mg/kg (∗P<0.05, ∗∗P<0.1, listed as Tyr Lys Val Pro Gln Leu): -12.5±11.1 mmHg; antihypertensive effect: significant antihypertensive effect |
